Test system: T-tropic HIV O18A
Test: Anti-HIV activity by MAGI assay, O18A
Type: cell-based
Settings: read-out: Infection preventive activity (IC50nM)

B1: K97-0003 peptide: polypeptide having the amino acid sequence of SEQ.ID.NO.1, purified from culture fluid of actinomycete strain K97-0003, about 14 KDa (protein)
chain: ASVTIRNAQTGRLLDSNYNGNVYTLPANGGNYQRWTGPGDGTVRNAQTGRCLDSNYDGAVYTLPCNGGSYQKWLFYSNGYIQNVETGRVLDSNYNGNVYTLPANGGNYQKWYTG
modifications: Actinomyces K97-0003 Strain
IC50: 110 nM
